From article PMC9026286, “Bacterial Lipodepsipeptides and Some of Their Derivatives and Cyclic Dipeptides as Potential Agents for Biocontrol of Pathogenic Bacteria and Fungi of Agrarian Plants” (Journal of Agricultural and Food Chemistry, 2022)

Test system: Escherichia coli DH5α
Conditions: 48 h
Experimental: The antimicrobial assay was carried out as described in Bassarello et al. (2004)[20] with some modifications. Bacteria were grown in LB broth at 25 or 37 °C overnight at 150 rpm. A total of 500 μL of a suspension containing about 10^8 cfu mL^–1 were added to 3 mL of LB soft agar (0.7%) and poured onto plates containing 7 mL of LB broth with agar 1.8%. […] After 24 ± 48 h of incubation at 25 or 37 °C, the end serial dilution inhibiting the growth of the bacteria in the area of application of 10 μL solutions was recorded. The plates containing the bacteria alone were used as a control. The experiment was performed in triplicate.

CC(C)C[C@@H]1NC(=O)[C@@H]2CCCN2C1=O [compound 13, cyclo(L-Pro-L-Leu)]
MIC: 300 µg/mL (≈ 1430 µM)

In brackets after ≈: the same amount, converted by molar mass.
